Values marked as one replicate rest on one cluster of the flow cell; about a third of the high ones do not repeat.
Tested on: ATP
Experiment: switch fluorescence ratio, 500 uM ATP over buffer (Cy3 cluster intensity, sum of 5 cycles each) (fold (ratio)); higher = stronger signal-on switching upon ATP binding; sequences stand for … in TCGTCGGCAGCGTCAGATGTGTATAAGAGACAGTTTTTTTTTTTTTTTTTTTTTTTTT…TC
Conditions: aptamer strand: ATP DNA aptamer (quencher-CACCTGGGGGAGTATTGCGGAGGAAGG + anchor), 100 nM annealed; ATP concentration: 500 uM; one replicate
Outline: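 Clusters carrying Cy3-labelled switching strands on a modified Illumina MiSeq flow-cell were annealed to 100 nM quencher-labelled ATP aptamer and imaged in selection buffer. They were imaged again after 15 min with 500 uM ATP at 22 °C, over five buffer/ATP cycles with NaOH stripping and re-annealing in between. For each cluster, the fluorescence ratio is the summed Cy3 intensity of the target cycles divided by that of the buffer cycles, averaged per switch-domain sequence. Clusters outside 100-1000 RFU were left out.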
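Further: ATP exposure 15 min at 22 °C before imaging.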

| Sequence | switch fluorescence ratio |
| --- | --- |
| TAGAGCCCAC | 1.03 |
| CAGTACCGGT | 1.06 |
| GAGCGGGGAG | 1.03 |
| GGAGGCAAGC | 1.78 |
| GCACGCTCAC | 1.64 |
| TTACGGCCTC | 1 |
| GATCAACCAT | 0.983 |
| GTATCTGTCG | 1.01 |
| TTGTGGATTT | 0.999 |
| GCTGGCAAT | 1.04 |
| CTGAGTATTT | 0.984 |
| GCTACTTTCT | 1.02 |
| TTCTAACAAG | 0.992 |
| ACGGGAATGG | 1.04 |
| GGAATTATCA | 0.994 |
| TGCACTCCGC | 2.47 |
| TACTTGATGG | 0.914 |
| AACACGATCT | 0.976 |
| AATATCGCCT | 1.01 |
| GGTAATCGGG | 0.938 |
| TAAAACAATC | 1.02 |
| GGATGAACTA | 0.948 |

| Sequence | switch fluorescence ratio |
| --- | --- |
| AATCTATGGG | 0.991 |
| CTTATCTTAC | 1.11 |
| CTGTGCCGAC | 1.05 |
| GCTACAGTC | 1.03 |
| TGTGAATAAC | 1.03 |
| AGGCTACAAC | 1.1 |
| TAGTTTCTCA | 0.964 |
| CATCCATAAT | 1.29 |
| AATTCACCGA | 1.05 |
| CAGTAGGGAC | 1.01 |
| TCCAGCTTT | 0.994 |
| GGCTTACATC | 0.99 |
| CATACACCGA | 1.09 |
| TGACGCGTAG | 1.07 |
| CCGTCAGCGT | 1.65 |
| TTTGACGGCC | 0.979 |
| GCCGCACTAG | 6.12 |
| AGTGCGGATC | 1.01 |
| CTTGTCTTA | 0.965 |
| TGTGTAAAAC | 1.05 |
| CTTGCTTACA | 0.983 |
| TCAACCTTCG | 2.09 |

| Sequence | switch fluorescence ratio |
| --- | --- |
| AAGGCGAGAG | 1 |
| CCCGGGAACG | 1.01 |
| TGCCGAAGCT | 1.07 |
| TTCGACACCT | 1.33 |
| GTAAGTACAG | 1.36 |
| TTGCACGGAG | 1.01 |
| TAATCTATGG | 0.986 |
| TTCGCTATGC | 2.63 |
| TATTCGATCC | 1 |
| CTTCACCAGC | 1.23 |
| GACTGATTAC | 1.17 |
| TTGGTTGTGA | 0.956 |
| GGCATATTGC | 1.03 |
| GGGCTGGCGG | 0.971 |
| GCCTTATCC | 1.08 |
| TTCTAACAT | 0.988 |
| CTGGGTGGAT | 0.999 |
| ACTTGTCTAA | 1.05 |
| CCTTTCATGT | 1.01 |
| GTAGGGTCGG | 1.03 |
| ATAAAGCGAA | 1.02 |
| TGAATTCGAC | 1.02 |

| Sequence | switch fluorescence ratio |
| --- | --- |
| GTTTTATGTT | 0.981 |
| TCTACAAAAA | 0.988 |
| GGGGAGGCGA | 0.963 |
| TTAGTCACAT | 1.13 |
| GTGTCGATGG | 0.994 |
| GAGTGAGGCT | 0.981 |
| TAGTCGGAAC | 1.03 |
| ATTCGCCGAC | 1.05 |
| TTATGGTACG | 1.05 |
| GCTCCAGATA | 1.19 |
| ACGCGGTACA | 1.07 |
| AAAACGGTTC | 1.08 |
| TATTGATCCA | 1.03 |
| AATTAGGTG | 1.17 |
| GTGAGACTAG | 1.04 |
| TTGCTCCCTA | 1.23 |
| ATGCAACACT | 1.21 |
| CGTGCGCATC | 4.07 |
| ACGAACTCGT | 0.993 |
